Experimental data taken from paper PMC12689633.
These are yes or no findings as the source states them, for the method shown. In cells and extracts the contact can be indirect.

Target: T1, p53-binding protein 1 (53BP1) (human (endogenous in RPE1)), Q12888
T1 chain: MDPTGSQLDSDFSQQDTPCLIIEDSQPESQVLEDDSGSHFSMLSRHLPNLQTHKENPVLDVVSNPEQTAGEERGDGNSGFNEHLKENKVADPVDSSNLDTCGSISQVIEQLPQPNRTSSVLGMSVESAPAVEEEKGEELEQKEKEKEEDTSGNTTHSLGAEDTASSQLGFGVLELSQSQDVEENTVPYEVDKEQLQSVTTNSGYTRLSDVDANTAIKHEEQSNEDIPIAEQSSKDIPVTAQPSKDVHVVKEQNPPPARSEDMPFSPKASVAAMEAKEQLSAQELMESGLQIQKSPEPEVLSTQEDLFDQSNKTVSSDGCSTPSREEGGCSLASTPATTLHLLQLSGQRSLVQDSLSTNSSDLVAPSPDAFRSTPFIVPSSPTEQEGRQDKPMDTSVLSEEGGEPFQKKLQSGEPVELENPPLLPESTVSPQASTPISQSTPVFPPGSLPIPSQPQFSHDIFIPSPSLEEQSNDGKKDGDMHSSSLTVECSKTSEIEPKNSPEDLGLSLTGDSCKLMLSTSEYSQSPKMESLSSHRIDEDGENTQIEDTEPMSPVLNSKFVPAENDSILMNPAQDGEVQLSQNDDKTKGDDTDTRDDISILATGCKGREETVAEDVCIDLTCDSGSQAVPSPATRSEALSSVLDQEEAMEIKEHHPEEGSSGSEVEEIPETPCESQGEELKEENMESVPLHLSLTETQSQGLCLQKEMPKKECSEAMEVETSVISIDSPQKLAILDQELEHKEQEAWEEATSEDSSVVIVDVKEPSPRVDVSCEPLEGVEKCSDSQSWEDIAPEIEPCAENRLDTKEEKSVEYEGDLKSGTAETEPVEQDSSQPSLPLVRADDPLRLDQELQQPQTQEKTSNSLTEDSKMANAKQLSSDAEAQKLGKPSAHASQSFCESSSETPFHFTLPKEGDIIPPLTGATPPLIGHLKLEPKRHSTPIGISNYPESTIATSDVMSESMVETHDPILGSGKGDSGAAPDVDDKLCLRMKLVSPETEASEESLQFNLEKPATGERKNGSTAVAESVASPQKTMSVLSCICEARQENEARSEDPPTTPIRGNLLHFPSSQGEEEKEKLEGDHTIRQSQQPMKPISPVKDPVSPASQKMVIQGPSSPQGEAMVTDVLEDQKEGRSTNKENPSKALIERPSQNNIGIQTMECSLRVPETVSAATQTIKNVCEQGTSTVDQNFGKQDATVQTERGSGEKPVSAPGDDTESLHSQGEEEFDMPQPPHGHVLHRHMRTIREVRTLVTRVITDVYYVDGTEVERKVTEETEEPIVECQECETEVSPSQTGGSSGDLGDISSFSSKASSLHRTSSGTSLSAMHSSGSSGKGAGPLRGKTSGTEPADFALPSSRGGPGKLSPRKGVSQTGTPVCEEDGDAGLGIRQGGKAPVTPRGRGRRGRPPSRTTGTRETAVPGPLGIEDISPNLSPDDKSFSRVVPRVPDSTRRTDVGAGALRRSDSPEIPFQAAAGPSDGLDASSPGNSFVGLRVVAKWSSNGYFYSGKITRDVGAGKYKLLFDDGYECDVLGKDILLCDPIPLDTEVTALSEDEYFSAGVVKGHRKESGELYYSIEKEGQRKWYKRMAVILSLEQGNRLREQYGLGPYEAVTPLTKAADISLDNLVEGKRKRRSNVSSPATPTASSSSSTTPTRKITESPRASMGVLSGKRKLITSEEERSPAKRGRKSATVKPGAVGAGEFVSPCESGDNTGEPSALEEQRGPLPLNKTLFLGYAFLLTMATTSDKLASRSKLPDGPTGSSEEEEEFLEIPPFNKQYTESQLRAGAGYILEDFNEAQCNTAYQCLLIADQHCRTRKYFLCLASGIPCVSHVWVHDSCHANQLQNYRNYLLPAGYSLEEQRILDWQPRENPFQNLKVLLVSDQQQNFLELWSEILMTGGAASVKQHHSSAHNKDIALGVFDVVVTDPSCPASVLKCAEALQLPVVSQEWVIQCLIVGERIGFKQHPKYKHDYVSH
Assay: co-IP; anti-53BP1 antibody and Protein A magnetic beads, 1-2 mg lysate of RPE1 or USP28∆ RPE1 cells with transgenes, arrested in mitosis with nocodazole (100 ng/ml, 8 or 16 h), in some panels also released 6 h into G1; 20 mM Tris-HCl pH 7.5, 50 mM NaCl, 0.5% Triton X-100, 5 mM EGTA, 1 mM DTT, 2 mM MgCl2, 4 °C; blots for USP28 or FLAG and p53
Conditions: remark: other sources report otherwise

binding: no binding
B1: USP28^hIF1 (human isoform 1) transgene, Q96RU2-1 1-1077 (protein)
chain: MTAELQQDDAAGAADGHGSSCQMLLNQLREITGIQDPSFLHEALKASNGDITQAVSLLTDERVKEPSQDTVATEPSEVEGSAANKEVLAKVIDLTHDNKDDLQAAIALSLLESPKIQADGRDLNRMHEATSAETKRSKRKRCEVWGENPNPNDWRRVDGWPVGLKNVGNTCWFSAVIQSLFQLPEFRRLVLSYSLPQNVLENCRSHTEKRNIMFMQELQYLFALMMGSNRKFVDPSAALDLLKGAFRSSEEQQQDVSEFTHKLLDWLEDAFQLAVNVNSPRNKSENPMVQLFYGTFLTEGVREGKPFCNNETFGQYPLQVNGYRNLDECLEGAMVEGDVELLPSDHSVKYGQERWFTKLPPVLTFELSRFEFNQSLGQPEKIHNKLEFPQIIYMDRYMYRSKELIRNKRECIRKLKEEIKILQQKLERYVKYGSGPARFPLPDMLKYVIEFASTKPASESCPPESDTHMTLPLSSVHCSVSDQTSKESTSTESSSQDVESTFSSPEDSLPKSKPLTSSRSSMEMPSQPAPRTVTDEEINFVKTCLQRWRSEIEQDIQDLKTCIASTTQTIEQMYCDPLLRQVPYRLHAVLVHEGQANAGHYWAYIYNQPRQSWLKYNDISVTESSWEEVERDSYGGLRNVSAYCLMYINDKLPYFNAEAAPTESDQMSEVEALSVELKHYIQEDNWRFEQEVEEWEEEQSCKIPQMESSTNSSSQDYSTSQEPSVASSHGVRCLSSEHAVIVKEQTAQAIANTARAYEKSGVEAALSEVMLSPAMQGVILAIAKARQTFDRDGSEAGLIKAFHEEYSRLYQLAKETPTSHSDPRLQHVLVYFFQNEAPKRVVERTLLEQFADKNLSYDERSISIMKVAQAKLKEIGPDDMNMEEYKKWHEDYSLFRKVSVYLLTGLELYQKGKYQEALSYLVYAYQSNAALLMKGPRRGVKESVIALYRRKCLLELNAKAASLFETNDDHSVTEGINVMNELIIPCIHLIINNDISKDDLDAIEVMRNHWCSYLGQDIAENLQLCLGEFLPRLLDPSAEIIVLKEPPTIRPNSPYDLCSRFAAVMESIQGVSTVTVK
